In PubChem BioAssay AID504832 (National Center for Advancing Translational Sciences (NCATS), 2011):
The campaign covered roughly 310,000 compounds. About 18,000 (5.8%) were called active. Inconclusive means that the source gave no clear call. Such entries were picked first, then a sample of the others. The call rests on the fitted dose curve; in most records, active means well fitted inhibition curve with a large enough effect; inconclusive means small, poorly fitted or top-dose-only effect, or another doubt; inactive means no such curve, though single readings can be large or run the other way. No potency is given beside an inconclusive call; the fits are too rough.

test: Primary qHTS for delayed death inhibitors of the malarial parasite plastid, 48 hour incubation; details: P. falciparum luciferase growth in erythrocytes; series mostly up to 28.7 µM
In short: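 Read-out is firefly luciferase luminescence from an integrated reporter in P. falciparum, so falling signal marks reduced parasite growth. Infected erythrocytes were at 2% hematocrit and 0.1% parasitemia (final) in Albumax-supplemented RPMI 1640.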
Potency means the concentration at half of the fitted maximal effect; tags describe the fitted curve by direction and shape.

Row | Compound | Potency
1 | CC(=O)NC(C(=O)N1CCC(c2nc3ccccc3s2)CC1)C(C)C (stereo not drawn) | inactive
2 | COc1ccc(N/N=C(/C(N)=O)C2=NC(C)(C)Cc3ccccc32)cc1 | inconclusive [inhibitor, single point]
3 | Cn1nnnc1SCC(=O)NC1CCCC1 | inactive
4 | Nc1cc(=O)n(Cc2ccccc2)c(=O)n1-c1ccc(Cl)cc1 | active: 10.4 µM
5 | Cc1ccc2nc(-c3ccc(NC(=O)COC(=O)c4ccc([N+](=O)[O-])o4)cc3)sc2c1 | inactive
6 | O=C(CCC1CCCN(C(=O)Cn2cnnn2)C1)NCc1ccc(F)c(F)c1 (stereo not drawn) | inactive
7 | CN(C)CCNc1nc(S(=O)(=O)c2ccccc2)c(Cl)s1 | inactive
8 | O=C(NC(=S)Nc1ccccc1N1CCCCC1)c1ccc(F)cc1 | active: 8.28 µM
9 | O=C(Cc1ccccc1)Nc1ccc2[nH]ncc2c1 | inconclusive [inhibitor, partial curve, poor fit]
10 | C=CCc1cc(/C=C2/NC(=O)N(CC(=O)OC)C2=O)cc(OC)c1O | inconclusive [inhibitor, partial curve]
11 | c1cc(CNc2ccc3c(c2)OCO3)ccn1 | inconclusive [inhibitor, single point]
12 | CCOC(=O)CN(c1ccccc1C)S(=O)(=O)c1ccc(Cl)cc1 | inconclusive [inhibitor, partial curve, poor fit]
13 | c1ccc(-c2noc(CC3CCCCC3)n2)cc1 | inactive
14 | Cc1onc(-c2ccccc2)c1C(=O)/C=C/N(C)C | inactive
15 | CN(C)c1ccc(-c2nn3c(-c4ccc(Cl)cc4)nnc3s2)cc1 | inactive
16 | O=C(Cn1nnc(-c2ccccc2)n1)N/N=C/c1cc([N+](=O)[O-])c(Cl)cc1Cl | inactive
17 | Cc1ccc(-n2cc(CN3CCN(C(=O)c4ncn[nH]4)CC3)c(-c3ccc(F)cc3)n2)cc1 | active: 11.7 µM
18 | CC(C)c1onc(C(=O)NC2CCCC2)c1[N+](=O)[O-] | inconclusive [inhibitor, single point]
19 | CCOC(=O)c1ccc(N=Cc2c(O)n(-c3ccc(OC)cc3)c(=S)[nH]c2=O)cc1 | inactive
20 | Nc1cnn(C2CCCO2)c(=O)n1 (stereo not drawn) | inactive
21 | Cc1cc(C(=O)CS(=O)c2ccc(F)cc2)cc(C)c1OC(=O)N(C)C (stereo not drawn) | inconclusive [inhibitor, single point]
22 | O=C(c1ccccc1)c1coc2c1C(=O)c1ccccc1C2=O | inconclusive [inhibitor, single point]
23 | O=C(NCC(c1ccco1)N1CCc2ccccc21)c1ccccc1Cl (stereo not drawn) | inconclusive [inhibitor, single point]
24 | CCc1ccc2c(c1)cc(CN(C(=S)Nc1ccc(Cl)cc1)C1CC1)c1nnnn12 | active: 2.94 µM
25 | CN1C(=O)CC(Sc2ccccc2C(=O)O)C1=O (stereo not drawn) | inactive

Row | Compound | Potency
26 | COc1ccc(C(=O)NC2CC(C)(C)Cc3c2cnn3-c2ccccc2C)o1 (stereo not drawn) | inconclusive [inhibitor, partial curve, poor fit]
27 | COc1cccc(C(=O)C2CCCN(CC3=Cc4cc(OC)ccc4OC3)C2)c1 (stereo not drawn) | inconclusive [inhibitor, single point]
28 | O=C1Nc2ccccc2C12Nc1ccccc1-c1nc3ccccc3n12 (stereo not drawn) | active: 0.738 µM
29 | CCCOc1ccccc1C1NC(=O)NC(C)=C1C(=O)OCc1ccccc1 (stereo not drawn) | active: 13.1 µM
30 | CCOC(=O)C1CCN(S(=O)(=O)c2cccc(-c3cn4cccnc4n3)c2)CC1 | inconclusive [inhibitor, partial curve]
31 | CCCCN(C(C)=O)C1CC(=O)N(c2ccc(OCCC)cc2)C1=O (stereo not drawn) | inactive
32 | CCOc1cc(C2C(C(=O)OC)=CN(Cc3ccc(Cl)cc3)C=C2C(=O)OC)ccc1O | inconclusive [inhibitor, single point]
33 | CCOCCCn1c(SCC(=O)NCc2ccc3c(c2)OCO3)nc2ccccc2c1=O | inconclusive [inhibitor, partial curve, poor fit]
34 | COc1ccc(SC[C@H](CC(C)C)N2CCN(CCc3ccccc3)CCC2=O)cc1 | inconclusive [inhibitor, single point]
35 | COCC1CCCCN1C(=O)C1CCN(c2nc(-c3ccccc3)nc3c2CCC3)CC1 (stereo not drawn) | active: 9.28 µM
36 | Nc1c(C(=O)NCc2ccco2)nnn1CC(=O)Nc1ccc2c(c1)OCO2 | active: 11.7 µM
37 | CCCCCc1cc(O)c2c3c(c(=O)oc2c1)CN(C)CC3 | inconclusive [inhibitor, full curve, poor fit]
38 | CCC(C)(C)NC(=O)C(c1ccc(OC)cc1)N(C(=O)CCC(=O)Nc1cc(C)on1)c1ccccc1F (stereo not drawn) | inconclusive [inhibitor, partial curve]
39 | NC(=O)c1sc2cc(C(F)(F)F)cnc2c1-c1ccccc1 | inconclusive [inhibitor, single point]
40 | CCO[C@@H]1OC(C(N)=O)=C[C@H](c2ccc3c(c2)OCO3)[C@H]1CCCO | inactive
41 | COc1cc2cc(-c3ccc(O)cc3O)nc(C)c2cc1OC | inconclusive [inhibitor, single point]
42 | Cc1ccc(C(=O)N2N=C(c3ccccc3O)CC2c2ccccc2)cc1 (stereo not drawn) | active: 10.4 µM
43 | Cc1ccc(Cl)cc1NC(=O)CN1CCN(S(=O)(=O)N2CCOCC2)CC1 | inconclusive [inhibitor, single point]
44 | CCN1CCC(NCCc2ccc(F)cc2)CC1 | inconclusive [inhibitor, single point]
45 | COc1ccc(C(=O)c2ccc(Br)cc2)cc1 | active: 11.7 µM
46 | CCOC(=O)C1(CCCc2ccccc2)CCN(C(=O)CCc2cnn(C)c2)CC1 | inconclusive [inhibitor, partial curve, poor fit]
47 | CN(CCNC(=O)C1CCC(=O)N(Cc2ccc(Cl)cc2)C1)CCc1ccccc1 (stereo not drawn) | inconclusive [inhibitor, partial curve]
48 | Cc1ccc2c(c1)c1c3n2CCN(CC(O)CNC(C)C)C3CCC1 (stereo not drawn) | inconclusive [inhibitor, single point]
49 | O=C(NCc1ccc(Cl)cc1)c1csc(-c2cccnc2)n1 | inconclusive [inhibitor, full curve]
50 | CC1(C)S[C@@H]2[C@H](NC(=O)[C@H](N)c3ccccc3)C(=O)N2[C@H]1C(=O)O | inactive

Row | Compound | Potency
51 | Cc1sc(NC(=O)C2=COCCO2)nc1-c1ccc(F)cc1 | inconclusive [inhibitor, single point]
52 | COC(=O)c1c(C)[nH]c(C(=O)C(C)OC(=O)c2cnc(C)cn2)c1C (stereo not drawn) | inactive
53 | COc1ccccc1-n1cnc2cc(C(=O)NCc3ccco3)ccc21 | inconclusive [inhibitor, partial curve]
54 | CCCCCOCC(O)CCC(=O)NN (stereo not drawn) | inconclusive [inhibitor, partial curve, poor fit]
55 | CN(C)C(CNC(=O)c1cccc(S(=O)(=O)NCc2ccccc2)c1)c1ccco1 (stereo not drawn) | inconclusive [inhibitor, single point]
56 | O=C(CC1CC2CCC1C2)NCCc1ccc(Cl)cc1 (stereo not drawn) | inactive
57 | COc1ccc(C)cc1Nc1n[n+](-c2ccccc2)c(-c2cccc(Cl)c2Cl)s1 | inconclusive [inhibitor, partial curve, poor fit]
58 | COc1ccccc1/C=N/NC(=Nc1ccc(C)cc1)c1nc2ccccc2s1 | inactive
59 | Cc1c(C(=O)N(C)Cc2ccccc2)oc2ccc(S(=O)(=O)N3CCCC3)cc12 | inconclusive [inhibitor, partial curve]
60 | COc1cccc(CCN2CCC(CNS(=O)(=O)c3cc(-c4cc(C)no4)ccc3C)CC2)c1 | inconclusive [inhibitor, partial curve]
61 | COc1cc(/C=C/C(=O)OCC(=O)NCc2ccccc2OC)ccc1O | inconclusive [inhibitor, partial curve, poor fit]
62 | CCOC(=O)c1c(C)c(C(=O)NCc2ccc(OC)cc2)c(C)n1C | inconclusive [inhibitor, partial curve, poor fit]
63 | Cc1ccc(NCc2ccc(O)c3ncccc23)cc1 | inactive
64 | O=C(CCCN1C(=O)C(c2ccccc2)Oc2cccnc21)NCCc1ccc(Cl)cc1 (stereo not drawn) | inconclusive [inhibitor, single point]
65 | N#Cc1ccccc1OCC(=O)NC(=O)NCc1ccco1 | inactive
66 | CCCC(=O)N1CCN(c2nnc(-c3ccccc3)c3ccccc23)CC1 | inconclusive [inhibitor, partial curve, poor fit]
67 | O=C(OCC(=O)N1CCc2ccccc21)c1c2c(nc3ccccc13)CCCC2 | active: 8.28 µM
68 | C/C=C(\C)C(=O)NCCN1C2=NC[C@H](C)N2C[C@@H]1Cc1ccc(OC)cc1 | inactive
69 | CCCCc1cc(=O)oc2cc(C)cc(OCC(=O)Nc3cccnc3)c12 | active: 0.465 µM
70 | CCC(O)(CC)C(=O)NN(C(=O)CCl)c1ccccc1 | inconclusive [inhibitor, partial curve, poor fit]
71 | CN1C(=O)Cc2cc(S(=O)(=O)NCc3c(F)cccc3Cl)ccc21 | inconclusive [inhibitor, partial curve, poor fit]
72 | O=C(OCc1cc(=O)n2ccsc2n1)C1(c2ccc(Cl)cc2)CC1 | inconclusive [inhibitor, single point]
73 | O=C(CNC(=S)N(Cc1ccc(F)cc1)C1CCCCC1)NCCN1CCOCC1 | inconclusive [inhibitor, single point]
